The test addresses 53BP1 expressed in 293T cells (human) (UniProt Q12888). The experiment in a line: co-IP; TIRR or its mutants and 53BP1 expressed in 293T cells; lysis in NETN-300, streptavidin sepharose beads 2 h 4 °C, NETN-100 washes; western blot. (In general: In western blotting, separated proteins are transferred to a membrane and probed.)

Amino acid sequences for entries named in this document (tags omitted).
UniProt Q12888: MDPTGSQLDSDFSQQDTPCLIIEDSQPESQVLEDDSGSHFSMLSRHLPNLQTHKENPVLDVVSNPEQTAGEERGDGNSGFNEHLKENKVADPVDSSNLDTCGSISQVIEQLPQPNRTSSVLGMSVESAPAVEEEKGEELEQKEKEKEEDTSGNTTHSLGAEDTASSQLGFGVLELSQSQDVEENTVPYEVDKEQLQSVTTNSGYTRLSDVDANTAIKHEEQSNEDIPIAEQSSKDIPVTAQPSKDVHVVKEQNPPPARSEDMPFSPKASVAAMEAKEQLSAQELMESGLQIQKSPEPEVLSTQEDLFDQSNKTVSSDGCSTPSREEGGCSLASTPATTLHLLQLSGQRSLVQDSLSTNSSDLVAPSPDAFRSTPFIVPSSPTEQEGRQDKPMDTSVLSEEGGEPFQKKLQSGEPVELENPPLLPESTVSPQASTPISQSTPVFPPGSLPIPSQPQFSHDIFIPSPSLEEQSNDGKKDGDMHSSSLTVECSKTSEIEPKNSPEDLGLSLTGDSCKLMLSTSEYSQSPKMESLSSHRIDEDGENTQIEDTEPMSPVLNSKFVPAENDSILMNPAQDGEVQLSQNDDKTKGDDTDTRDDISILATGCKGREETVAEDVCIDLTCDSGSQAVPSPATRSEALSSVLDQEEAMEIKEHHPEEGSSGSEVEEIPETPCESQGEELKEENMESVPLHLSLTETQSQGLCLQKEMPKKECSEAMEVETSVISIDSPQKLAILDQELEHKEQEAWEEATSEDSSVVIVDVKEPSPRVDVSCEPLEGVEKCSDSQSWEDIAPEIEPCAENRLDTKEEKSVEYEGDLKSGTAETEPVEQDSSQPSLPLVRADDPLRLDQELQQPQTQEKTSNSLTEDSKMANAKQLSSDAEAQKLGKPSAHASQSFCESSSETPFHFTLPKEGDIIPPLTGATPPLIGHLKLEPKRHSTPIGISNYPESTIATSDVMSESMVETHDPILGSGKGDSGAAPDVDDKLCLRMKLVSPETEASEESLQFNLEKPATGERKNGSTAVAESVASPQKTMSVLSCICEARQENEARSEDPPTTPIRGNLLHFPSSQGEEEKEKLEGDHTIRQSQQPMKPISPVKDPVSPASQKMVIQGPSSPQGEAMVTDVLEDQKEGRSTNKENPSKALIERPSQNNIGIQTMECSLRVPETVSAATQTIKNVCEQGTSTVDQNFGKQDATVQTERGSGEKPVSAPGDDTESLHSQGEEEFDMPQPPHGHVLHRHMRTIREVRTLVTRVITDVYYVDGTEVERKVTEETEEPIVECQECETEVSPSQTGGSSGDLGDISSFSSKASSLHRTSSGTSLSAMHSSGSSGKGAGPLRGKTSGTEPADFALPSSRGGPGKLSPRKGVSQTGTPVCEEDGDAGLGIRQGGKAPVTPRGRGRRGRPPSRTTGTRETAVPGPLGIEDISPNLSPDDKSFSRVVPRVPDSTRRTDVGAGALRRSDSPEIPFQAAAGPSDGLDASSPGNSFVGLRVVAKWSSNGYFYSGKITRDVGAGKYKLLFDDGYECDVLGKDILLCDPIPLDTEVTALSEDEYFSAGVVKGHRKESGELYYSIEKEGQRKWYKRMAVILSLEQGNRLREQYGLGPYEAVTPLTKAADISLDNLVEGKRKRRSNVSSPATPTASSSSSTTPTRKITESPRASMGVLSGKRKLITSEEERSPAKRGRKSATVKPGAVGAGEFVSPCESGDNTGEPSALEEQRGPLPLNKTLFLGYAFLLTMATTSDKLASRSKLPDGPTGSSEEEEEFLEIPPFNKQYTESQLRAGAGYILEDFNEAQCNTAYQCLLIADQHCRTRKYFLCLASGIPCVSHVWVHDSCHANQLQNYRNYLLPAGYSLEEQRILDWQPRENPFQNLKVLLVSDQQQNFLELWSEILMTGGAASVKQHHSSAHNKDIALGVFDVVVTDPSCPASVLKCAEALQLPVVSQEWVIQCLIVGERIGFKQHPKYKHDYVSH

Numbering of substitutions follows the chain as printed. Names may count otherwise. These are yes or no findings as the source states them, for the method shown. In cells and extracts the contact can be indirect.

B1: TIRR P105A expressed in 293T cells (protein, UniProt Q9BRJ7 1-211)
chain: MSTAAVPELKQISRVEAMRLGPGWSHSCHAMLYAANPGQLFGRIPMRFSVLMQMRFDGLLGFPGGFVDRRFWSLEDGLNRVLGLGLGCLRLTEADYLSSHLTEGAHRVVAHLYARQLTLEQLHAVEISAVHSRDHGLEVLGLVRVPLYTQKDRVGGFPNFLSNAFVSTAKCQLLFALKVLNMMPEEKLVEALAAATEKQKKALEKLLPASS
In the case of B1, the binding entry is reported as “no binding”.

B2: TIRR K10E expressed in 293T cells (protein, UniProt Q9BRJ7 1-211)
chain: B1 chain with K10E, A105P
On to B2, for which the binding entry is reported as “no binding”.

These data come from publication PMC6043480.
